Positions count from the first letter of the chain named. In names and notes the source's numbering stands. Results are given in words; binding and its absence hold for the method and conditions named. In cells and extracts the contact can be indirect. Some binding calls cover weakened binding; strength is not graded here. For some of these results: Sequences can lack the tags named with a protein. Each block holds one molecule with its values, some of them ahead of it.
Experiments:
[1] = biological target: T1, RASSF1A-FLAG (Ras association domain family 1A, wild type) (human) (UniProt Q9NS23); assay: co-IP; HEK293 cells transfected with RASSF1A-FLAG (WT, S203A, S203D) or RASSF1C-FLAG and HIF1A, hypoxia 24 h; Co-IP lysis buffer; IP with anti-HIF1A or anti-FLAG overnight, Protein G sepharose, washes PBS + 0.1% tween20, western blotting
T1 sequence: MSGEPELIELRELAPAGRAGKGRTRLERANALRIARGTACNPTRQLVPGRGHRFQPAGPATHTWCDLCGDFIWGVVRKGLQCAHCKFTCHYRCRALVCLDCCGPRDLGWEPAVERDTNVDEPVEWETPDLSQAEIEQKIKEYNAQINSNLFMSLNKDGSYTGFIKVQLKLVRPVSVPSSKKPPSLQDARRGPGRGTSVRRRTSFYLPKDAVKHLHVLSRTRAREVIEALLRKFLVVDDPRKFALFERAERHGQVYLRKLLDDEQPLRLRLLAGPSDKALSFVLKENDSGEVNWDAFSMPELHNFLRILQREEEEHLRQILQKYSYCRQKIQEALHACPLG

Chains of the proteins cited; added tags and fusions are not shown.
UniProt Q16665: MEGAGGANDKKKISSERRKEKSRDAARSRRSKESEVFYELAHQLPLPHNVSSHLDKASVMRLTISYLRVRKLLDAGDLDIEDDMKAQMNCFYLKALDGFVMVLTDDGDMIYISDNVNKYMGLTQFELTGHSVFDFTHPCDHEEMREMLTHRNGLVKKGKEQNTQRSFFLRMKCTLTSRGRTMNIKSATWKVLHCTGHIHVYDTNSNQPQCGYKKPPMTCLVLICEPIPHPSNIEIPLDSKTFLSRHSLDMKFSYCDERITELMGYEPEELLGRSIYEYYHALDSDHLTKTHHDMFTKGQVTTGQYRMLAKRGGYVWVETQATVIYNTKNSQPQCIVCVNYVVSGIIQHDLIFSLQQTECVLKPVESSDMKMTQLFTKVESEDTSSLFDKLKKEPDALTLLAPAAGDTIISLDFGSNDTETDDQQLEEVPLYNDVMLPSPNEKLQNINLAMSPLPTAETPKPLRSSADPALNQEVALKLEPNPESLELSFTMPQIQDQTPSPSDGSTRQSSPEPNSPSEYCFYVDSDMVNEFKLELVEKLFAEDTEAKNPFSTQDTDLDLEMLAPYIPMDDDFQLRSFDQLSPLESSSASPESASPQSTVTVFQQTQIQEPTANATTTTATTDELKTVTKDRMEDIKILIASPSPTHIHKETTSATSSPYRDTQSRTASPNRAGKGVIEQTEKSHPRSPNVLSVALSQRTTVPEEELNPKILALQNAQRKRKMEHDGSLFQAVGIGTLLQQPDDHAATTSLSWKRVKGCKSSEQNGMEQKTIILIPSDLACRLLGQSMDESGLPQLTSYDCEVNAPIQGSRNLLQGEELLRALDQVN

[2] = biological target: Hypoxia inducible factor-1 α (HIF-1α), overexpressed (human) (UniProt Q16665); assay: as above
[3] = biological target: endogenous HIF-1α (human (endogenous in PASMCs)) (UniProt Q16665); assay: proximity ligation; human PASMCs on chamber slides, hypoxia for different time points, fixed with acetone:methanol (1:1); Duolink with HIF1A and RASSF1A antibodies
[4] = biological target: endogenous HIF-1α (human (endogenous in PASMCs)) (UniProt Q16665); assay: co-IP; human PASMCs exposed to hypoxia for 24 h; endogenous proteins; HIF1A IP (IgG as control) and RASSF1A western blotting

- binding [1]: binds
Molecule: Hypoxia inducible factor-1 α (HIF-1α), overexpressed (from UniProt Q16665 1-826)

- binding [2]: no binding
B1: RASSF1C-FLAG (protein, UniProt Q9NS23-4 1-270)
chain: MGEAEAPSFEMTWSSTTSSGYCSQEDSDSELEQYFTARTSLARRPRRDQDEPVEWETPDLSQAEIEQKIKEYNAQINSNLFMSLNKDGSYTGFIKVQLKLVRPVSVPSSKKPPSLQDARRGPGRGTSVRRRTSFYLPKDAVKHLHVLSRTRAREVIEALLRKFLVVDDPRKFALFERAERHGQVYLRKLLDDEQPLRLRLLAGPSDKALSFVLKENDSGEVNWDAFSMPELHNFLRILQREEEEHLRQILQKYSYCRQKIQEALHACPLG

- binding [2]: binds
B2: RASSF1A-FLAG (Ras association domain family 1A, wild type) (protein, UniProt Q9NS23-2 1-340)
chain: T1 sequence

- binding [2]: binds
B3: RASSF1A-FLAG (S203A) (protein, UniProt Q9NS23-2 1-340)
chain: T1 sequence with S203A

- binding [2]: binds
B4: RASSF1A-FLAG (S203D) (protein, UniProt Q9NS23-2 1-340)
chain: T1 sequence with S203D

- binding [3]: binds
- binding [4]: binds
B5: endogenous RASSF1A (protein, UniProt Q9NS23-2 1-340)
chain: T1 sequence
